Switch fluorescence ratio data for 79 sequences are collected here from the supplement of paper PMC10126150.

Values marked as one replicate rest on one cluster of the flow cell; about a third of the high ones do not repeat.
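Note: ATP exposure 15 min at 22 °C before imaging.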

The subject of this series is ATP. Put plainly: switch fluorescence ratio, 500 uM ATP over buffer (Cy3 cluster intensity, sum of 5 cycles each) (fold (ratio)); higher = stronger signal-on switching upon ATP binding; sequences stand for … in TCGTCGGCAGCGTCAGATGTGTATAAGAGACAGTTTTTTTTTTTTTTTTTTTTTTTTT…TC. As to conditions: aptamer strand: ATP DNA aptamer (quencher-CACCTGGGGGAGTATTGCGGAGGAAGG + anchor), 100 nM annealed; ATP concentration: 500 uM; one replicate. The method, boiled down: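 For every switch-domain sequence, the fluorescence ratio is the mean of per-cluster values, each being summed target-cycle Cy3 intensity over summed buffer-cycle Cy3 intensity. Clusters outside 100-1000 RFU were excluded. On a modified Illumina MiSeq flow-cell, the Cy3-labelled switching-strand clusters were annealed to 100 nM quencher-labelled ATP aptamer, imaged in selection buffer and then after 15 min with 500 uM ATP at 22 °C. Five such cycles were run, with NaOH stripping and re-annealing between them.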
For the sequence TCAGGTTCAG, the switch fluorescence ratio was 1.01.

Regarding TTTACATGTT, the switch fluorescence ratio came out at 1.06. For ATACGAGCGG the value was 1; for AGAAGCGAGC, 0.904; for TCCGTATGTG, 0.97. With GCCGCATCT, the switch fluorescence ratio was determined as 0.996.

In the case of AAATATCACA, the switch fluorescence ratio is 1.03. For GGCGACAGGC the value was 1.02; for ACTAATATTT, 1.01; for ATTTACTTCA, 1.08. To GAAGTGATTT belongs 1.06; to GTAGCTATGG, 1.94; to AAGCACGTGA, 1.04. For TCTTTAAGGG the value was 0.942. Consider TAACTCATGC, for which the switch fluorescence ratio was 1.08.

In the case of AGTTGCTTAG, the switch fluorescence ratio amounted to 0.969.

For the sequence TCGACCAATT, the switch fluorescence ratio was 1.39. For GGTGAAGGG the value was 1.01. To CCTCGTTTCG belongs 1.07; to ATCAGAGGA, 1.04. For the sequence AAAACGTCCA, the switch fluorescence ratio was determined as 1.01. With AATTTATTGA, the switch fluorescence ratio was 1.05. To ACGAAGTGAC belongs 1.08; to TTGGTGATTC, 1.02; to TTCCCGCCCC, 2.37. For GGCGTAGTCG the value was 1. For ATTTGAGAGG the value was 0.959; for TGGGATTCGT, 0.93; for GGTCCAATGG, 0.993. ACATATTGAC: the switch fluorescence ratio amounted to 1.04. For the sequence TTACTAGTGT, the switch fluorescence ratio was 1.01. For ATTGCACACA the value was 1.08; for CAGAGTGT, 0.985. Consider ATACTGAGAT, for which the switch fluorescence ratio worked out at 1.01.

As to TCATATTAA, the switch fluorescence ratio came to 1. Consider GGTGTTAGTA, for which the switch fluorescence ratio was 1.04. For ATTTACTATT the value was 0.975; for GGGGCGCCCG, 0.97.

Consider TGCAGCTTTG, for which the switch fluorescence ratio amounted to 1.02.

In the case of ACGTTACAGT, the switch fluorescence ratio came out at 1.54. On to AGGCACTTGG, for which the switch fluorescence ratio was found to be 1.03. With TAGAGAAGGC, the switch fluorescence ratio is 0.987.

As to ATTAATACGC, the switch fluorescence ratio stood at 1.04. For TATAAAATCA, the switch fluorescence ratio was found to be 0.971. For TACACTAGAT, the switch fluorescence ratio was 0.999. AGGAGCTCCG: the switch fluorescence ratio was 1.09. In the case of ATTGCTACAG, the switch fluorescence ratio came out at 1.01. Take GCGGGGATCC: the switch fluorescence ratio came out at 0.959.

In the case of CTTTTACTCT, the switch fluorescence ratio was determined as 0.958.

With GATAGATCGC, the switch fluorescence ratio came to 0.955. For TCGGGCGCGC the value was 1.1; for AGTTGAAG, 0.984; for GGAACCATAG, 1.06. For TCCTGAAGGG the value was 1.01; for TTCTGATGAG, 1.01; for CGCCAGGGTT, 1.29. To TTGGACTCAG belongs 1.08; to TATGGAGCGA, 1.56; to GAAAGCAAAC, 4.83. Regarding TCATAGAGGG, the switch fluorescence ratio is 1. For ATTAGCTTTC the value was 1.16.

GTAAGTCGAC: the switch fluorescence ratio was 1.06. As for TCCAGCTGCC, the switch fluorescence ratio was 1.08. For CGTAAAATTC the value was 0.993; for TTCGGTACCT, 1.06. As for CCTTTTGTCA, the switch fluorescence ratio is 1.02. Consider CCTGGCCCCA, for which the switch fluorescence ratio worked out at 0.989. For AGATAAGACA the value was 0.973; for GATCGCGAGG, 0.962; for AACTCGAGC, 0.985. To CGGATCCGGG belongs 1.04.

Consider CTAGATTATT, for which the switch fluorescence ratio is 1.01. For GCTTGATT the value was 1.02; for GGAAAAAATT, 1.01. With CGTTCAAGAT, the switch fluorescence ratio was 1.05. To AACCCAGATT belongs 1; to GGCGCTGTAT, 0.995; to TCTATGTGCC, 0.948.

With TTTCAGGACG, the switch fluorescence ratio was found to be 1.03.
